Measurements from the supplement of paper PMC11876631.
Where a chain is given by its changes, count along the chain named. Numbers in names are those of the source. ± gives the standard deviation of the averaged measurements. Laboratory Escherichia coli strains with one amino-acid change in an essential protein, pooled on minimal glucose agar with carbenicillin or gentamicin at twice the control MIC (plus kanamycin and chloramphenicol for the plasmids), 48 h. Fold change of barcode share against drug-free plates; higher = less susceptible. Active = above 20 in both replicates (the paper's putatively resistant). '<' = one read or none on drug, '>' = one read or none on a drug-free plate. Shares are relative, so most strains fall below 1 when a few take over. Listed are strains with at least 15 reads on both drug-free plates, and hits; most hits rest on fewer reference reads. Replicate rank correlation about 0.5. Edits are read from barcodes.

Molecular target: Escherichia coli (laboratory strain)
Test: barcode share on antibiotic plates over drug-free plates; higher = less susceptible
Details: antibiotic: gentamicin; 2× MIC (MIC 0.45 µg/mL)
Method: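 A pool of E. coli strains, each edited to carry one amino-acid change in an essential protein, was grown for 48 h on minimal glucose agar with or without antibiotic; strain barcodes were sequenced; mean of two replicates.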

B1: adk L209W (protein)
chain: MRIILLGAPGAGKGTQAQFIMEKYGIPQISTGDMLRAAVKSGSELGKQAKDIMDAGKLVTDELVIALVKERIAQEDCRNGFLLDGFPRTIPQADAMKEAGINVDYVLEFDVPDELIVDRIVGRRVHAPSGRVYHVKFNPPKVEGKDDVTGEELTTRKDDQEETVRKRLVEYHQMTAPLIGYYSKEAEAGNTKYAKVDGTKPVAEVRADWEKILG
fold change of barcode share: 0.0204 ± 0.017

B2: adk L209Q (protein)
chain: B1 chain with W209Q
fold change of barcode share: < 0.0202

B3: der V320P (protein)
chain: MVPVVALVGRPNVGKSTLFNRLTRTRDALVADFPGLTRDRKYGRAEIEGREFICIDTGGIDGTEDGVETRMAEQSLLAIEEADVVLFMVDARAGLMPADEAIAKHLRSREKPTFLVANKTDGLDPDQAVVDFYSLGLGEIYPIAASHGRGVLSLLEHVLLPWMEDLAPQEEVDEDAEYWAQFEAEENGEEEEEDDFDPQSLPIKLAIVGRPNVGKSTLTNRILGEERVVVYDMPGTTRDSIYIPMERDGREYVLIDTAGVRKRGKITDAVEKFSVIKTLQAIEDANVVMLVIDAREGISDQDLSLLGFILNSGRSLVIVPNKWDGLSQEVKEQVKETLDFRLGFIDFARVHFISALHGSGVGNLFESVREAYDSSTRRVGTSMLTRIMTMAVEDHQPPLVRGRRVKLKYAHAGGYNPPIVVIHGNQVKDLPDSYKRYLMNYFRKSLDVMGSPIRIQFKEGENPYANKRNTLTPTQMRKRKRLMKHIKKNK
fold change of barcode share: < 0.00395

B4: der I318Q (protein)
chain: B3 chain with I318Q, P320V
fold change of barcode share: < 0.00345

B5: der I318A (protein)
chain: B3 chain with I318A, P320V
fold change of barcode share: 0.00703 ± 0.0046

B6: der I318W (protein)
chain: B3 chain with I318W, P320V
fold change of barcode share: < 0.00201

B7: eno M94A (protein)
chain: MSKIVKIIGREIIDSRGNPTVEAEVHLEGGFVGMAAAPSGASTGSREALELRDGDKSRFLGKGVTKAVAAVNGPIAQALIGKDAKDQAGIDKIAIDLDGTENKSKFGANAILAVSLANAKAAAAAKGMPLYEHIAELNGTPGKYSMPVPMMNIINGGEHADNNVDIQEFMIQPVGAKTVKEAIRMGSEVFHHLAKVLKAKGMNTAVGDEGGYAPNLGSNAEALAVIAEAVKAAGYELGKDITLAMDCAASEFYKDGKYVLAGEGNKAFTSEEFTHFLEELTKQYPIVSIEDGLDESDWDGFAYQTKVLGDKIQLVGDDLFVTNTKILKEGIEKGIANSILIKFNQIGSLTETLAAIKMAKDAGYTAVISHRSGETEDATIADLAVGTAAGQIKTGSMSRSDRVAKYNQLIRIEEALGEKAPYNGRKEIKGQA
fold change of barcode share: < 0.0196

B8: dnaC V135A (protein)
chain: MKNVGDLMQRLQKMMPAHIKPAFKTGEELLAWQKEQGAIRSAALERENRAMKMQRTFNRSGIRPLHQNCSFENYRVECEGQMNALSKARQYVEEFDGNIASFIFSGKPGTGKNHLAAAICNELLLRGKSVLIITAADIMSAMKDTFRNSGTSEEQLLNDLSNVDLLVIDEIGVQTESKYEKVIINQIVDRRSSSKRPTGMLTNSNMEEMTKLLGERVMDRMRLGNSLWVIFNWDSYRSRVTGKEY
fold change of barcode share: < 0.00764

B9: dnaA L74A (protein)
chain: MSLSLWQQCLARLQDELPATEFSMWIRPLQAELSDNTLALYAPNRFVLDWVRDKYLNNINGLLTSFCGADAPQARFEVGTKPVTQTPQAAVTSNVAAPAQVAQTQPQRAAPSTRSGWDNVPAPAEPTYRSNVNVKHTFDNFVEGKSNQLARAAARQVADNPGGAYNPLFLYGGTGLGKTHLLHAVGNGIMARKPNAKVVYMHSERFVQDMVKALQNNAIEEFKRYYRSVDALLIDDIQFFANKERSQEEFFHTFNALLEGNQQIILTSDRYPKEINGVEDRLKSRFGWGLTVAIEPPELETRVAILMKKADENDIRLPGEVAFFIAKRLRSNVRELEGALNRVIANANFTGRAITIDFVREALRDLLALQEKLVTIDNIQKTVAEYYKIKVADLLSKRRSRSVARPRQMAMALAKELTNHSLPEIGDAFGGRDHTTVLHACRKIEQLREESHDIKEDFSNLIRTLSS
fold change of barcode share: 0.0151 ± 0.013

B10: dnaA L74Q (protein)
chain: B9 chain with A74Q
fold change of barcode share: < 0.00339

B11: dnaA L74D (protein)
chain: B9 chain with A74D
fold change of barcode share: < 0.0159

B12: dnaA L74P (protein)
chain: B9 chain with A74P
fold change of barcode share: 0.0218 ± 0.021
